Data from PubChem BioAssay AID488969 (Vanderbilt High Throughput Screening Facility, 2010).
Where “and” joins values, the source holds several entries; their conditions need not be identical. Equal values may be shown once. Whole data set: some 110,000 compounds, median “z-score” near -0.1, cut for the highest 2% near 2. Some of the results follow. Calls of active or inactive are those of the source.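 How the source made its calls: active means z-score in the third read window above 3 or below -3; inactive means the rest.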

Biological target: Metabotropic glutamate receptor 8 (Rattus norvegicus) (UniProt P70579)
UniProt P70579, sequence (P70579 whole entry, looked up): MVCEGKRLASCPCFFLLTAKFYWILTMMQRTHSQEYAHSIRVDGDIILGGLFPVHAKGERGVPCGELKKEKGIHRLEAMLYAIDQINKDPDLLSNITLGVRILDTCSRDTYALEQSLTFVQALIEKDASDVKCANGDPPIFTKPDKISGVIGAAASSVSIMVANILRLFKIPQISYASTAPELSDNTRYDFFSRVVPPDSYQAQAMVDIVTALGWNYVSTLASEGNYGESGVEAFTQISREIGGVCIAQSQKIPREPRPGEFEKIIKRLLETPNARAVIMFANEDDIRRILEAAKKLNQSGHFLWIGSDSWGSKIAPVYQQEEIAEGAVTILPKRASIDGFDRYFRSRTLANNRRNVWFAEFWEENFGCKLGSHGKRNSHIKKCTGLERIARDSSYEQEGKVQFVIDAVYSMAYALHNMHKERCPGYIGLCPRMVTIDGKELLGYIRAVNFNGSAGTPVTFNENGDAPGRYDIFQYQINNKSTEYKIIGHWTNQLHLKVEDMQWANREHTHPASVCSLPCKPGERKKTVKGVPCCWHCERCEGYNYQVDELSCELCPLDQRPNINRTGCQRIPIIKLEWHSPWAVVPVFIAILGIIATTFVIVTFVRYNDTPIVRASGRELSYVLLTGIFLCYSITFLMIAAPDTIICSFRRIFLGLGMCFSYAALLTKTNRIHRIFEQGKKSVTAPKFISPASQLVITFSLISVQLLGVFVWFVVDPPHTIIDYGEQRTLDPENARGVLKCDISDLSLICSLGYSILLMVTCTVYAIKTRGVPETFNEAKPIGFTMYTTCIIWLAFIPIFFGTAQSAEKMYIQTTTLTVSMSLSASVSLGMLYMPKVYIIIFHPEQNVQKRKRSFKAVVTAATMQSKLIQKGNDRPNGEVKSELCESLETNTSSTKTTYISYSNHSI
Assay: rat mGluR8 modulators via GIRK flux, primary screen, cell-based, thallium flux, HTS (AID 488969)
Conditions: HEK293 rat mGluR8, GIRK (G protein-gated inwardly rectifying potassium channel) thallium flux, FluoZin2; at 10 µM; stronger effect = higher value; submaximal glutamate (EC20) added with thallium

First: COc1ccccc1-c1nc(-c2ccc(Br)o2)no1
Second: COc1cccc(C=Nc2ccccc2C(=O)Nc2nccs2)c1OC
The z-score of the first is lower: -0.865 for the first, 0.364 for the second.

First: CCOC(=O)CC1COc2ccccc2N1C(=O)c1ccc(C)cc1 (configuration not stated)
Second: COc1ccc(C(=O)n2cc(C(=O)c3cc(C)ccc3O)cn2)cc1
The z-score of the first is higher: -0.591 for the first, -1.28 for the second.

First: CC(C)(C)C(=O)COC(=O)c1cccc(NC(=O)c2ccco2)c1
Second: O=C(Nc1cc(Oc2ccc(Cl)cc2)cc([N+](=O)[O-])c1)c1ccco1
The z-score of the first is higher: 1.97 for the first, -0.326 for the second.

First: O=C(CCc1ccc(S(=O)(=O)NCc2ccccc2)cc1)NCc1cccnc1
Second: CC(=O)Nc1ccc(S(=O)(=O)NCCc2ccccc2)cc1
The z-score of the first is higher: -0.0913 for the first, -0.111 for the second.

First: Cc1ccccc1NC(=O)C1CC(=O)N(c2ccccc2F)C1 (configuration not stated)
Second: Cc1ccccc1NC(=O)c1ccc(CN2CCc3ccccc3C2)cc1
The z-score of the first is higher: 0.299 for the first, -0.165 for the second.

Going from `COC(=O)/C(=C/c1ccc2c(c1)c1ccccc1n2C)NC(=O)c1ccccc1` to `Cc1ccc(NC(=O)CCNS(=O)(=O)c2ccccc2)c(C(=O)c2ccccc2)c1`, the z-score falls from -0.303 to -0.33.

Compared with `COc1ccc(CCNC2CC(=O)N(C)C2=O)cc1OC` (configuration not stated), `COc1ccc(CN(C)Cc2nc3scc(-c4ccccc4)c3c(=O)[nH]2)cc1OC` is lower in z-score: -0.0319 for the first, -0.276 for the second.

Going from `C=CCn1c(CNC(=O)c2cccs2)nnc1SCC(=O)Nc1ccc(C(=O)O)cc1` to `COCCn1c(SCC(=O)NCc2ccccc2)nnc1-c1ccco1`, the z-score rises from -0.0859 to 0.995.

Going from `CCN(CCNC(=O)CN1CCN(Cc2ccc(Cl)cc2)C1=O)c1ccccc1` to `O=C(CCNC(=O)Cn1ccc2ccccc2c1=O)NCCN1CCN(c2cccc(Cl)c2)CC1`, the z-score falls from -0.278 to -0.463.

Going from `O=C(O)c1ccc(CSc2nc3ccccc3o2)cc1` to `CC1C/C(=N/NC(=O)c2ccc(CSc3nc4ccccc4[nH]3)cc2)CC(C)(C)C1` (configuration not stated), the z-score falls from 0.254 to -0.00645.

Compared with `CCOC(=O)c1c(C)[nH]c(N=Nc2ccccc2C)c1C`, `Cc1[nH]c2ccccc2c1N=Nc1ccccc1C(=O)O` is higher in z-score: -0.442 for the first, -0.0857 for the second.

Compared with `CC1=NNC(=O)C1C(c1ccccc1)C(C#N)C#N` (configuration not stated), `Cc1ccccc1-n1c(C)n[nH]c1=S` is higher in z-score: -0.494 for the first, 0.295 for the second.

Going from `CCCCCn1c(CN2CCN(c3cccc(Cl)c3)CC2)nc2c1c(=O)[nH]c(=O)n2C` to `Cn1c(=O)c2c(nc(SCC(=O)Nc3ccccc3N3CCCCC3)n2C)n(C)c1=O`, the z-score rises from 0.565 to 0.726.

Going from `Cc1oc2c(CN3CCCC3)c(O)ccc2c(=O)c1-c1ccc(Cl)cc1` to `Cc1ccc(/C=C/C2=NN(Cc3ccccc3Cl)C(=O)CC2)cc1`, the z-score rises from -0.5 to -0.163.

First: O=C1C=C(N2CCN(C(=O)c3ccccc3)CC2)C2(CCCCC2)O1
Second: O=C(c1nn(-c2ccccc2)c(=O)c2ccccc12)N1CCN(c2ccccn2)CC1
The z-score of the first is higher: 1.34 for the first, -1.04 for the second.

Compared with `CC1(C)Oc2ccc3ccc(=O)oc3c2/C(=C/NCCN/C=C2\C(=O)C(C)(C)Oc3ccc4ccc(=O)oc4c32)C1=O`, `CC(NC(=O)c1ccc(CS(=O)(=O)Cc2ccccc2F)o1)c1ccc2c(c1)OCCO2` (configuration not stated) is lower in z-score: 0.187 for the first, 0.0841 for the second.

Going from `CC(C)CNC(=O)CSc1ccc(Cl)cc1` to `CC(C)CNC(=O)COc1ccc(Sc2ccc(OCC(=O)NCC(C)C)cc2)cc1`, the z-score rises from -0.519 to -0.033.

Going from `CC1CCCCN1Cc1c(C#N)c2ccccc2n1C` (configuration not stated) to `C=CCN1C(=O)C2(c3ccccc31)C1CCCC=C1C(C#N)=C(N)C2(C#N)C#N` (configuration not stated), the z-score rises from -1.44 to 0.086.

First: COc1ccnc(Oc2ccc(C)cc2)c1C#N
Second: COc1ccc(C(=S)Nc2ccc(C)cc2)cc1
The z-score of the first is lower: -0.0228 for the first, 0.176 for the second.

First: Cc1c2cnn(CC(=O)O)c(=O)c2c(C)n1Cc1ccccc1
Second: Cc1cc(C(F)(F)F)nn1Cc1n[nH]c(=S)n1Cc1ccccc1
The z-score of the first is lower: -0.192 for the first, 1.27 for the second.

Going from `COc1ccc(C(=O)N/N=C/C(Br)=C/c2ccccc2)cc1` to `Cc1cccc(C(=O)N/N=C/c2ccc(OCC(=O)N3CCCCC3)cc2)c1`, the z-score falls from 0.231 to -0.129.

Going from `COC(=O)c1ccc(-n2c(C)nc(=O)c(-c3ccccc3)c2C)cc1` to `COc1ccc2c(c1)c(C(C)=O)c(C)n2-c1ccccc1`, the z-score falls from 0.123 to -1.12.

Compared with `O=C(O)C1CCN(C(=O)OCc2ccccc2)CC1`, `CCOC(=O)C1CN(S(=O)(=O)c2ccccc2)C1` is higher in z-score: -0.336 for the first, -0.112 for the second.

Compared with `COC(=O)Cc1ccc(NC(=S)NCc2ccccc2)cc1`, `CC(=O)NS(=O)(=O)c1ccc(NC(=O)CCc2ccccc2)cc1` is higher in z-score: -0.185 for the first, 0.918 for the second.

First: Cc1cc(C)cc(-c2nnc(SCC(=O)NCc3cccs3)o2)c1
Second: Cc1csc(SCC(=O)NCc2cccs2)n1
The z-score of the first is lower: -0.232 for the first, 0.824 for the second.

First: Cc1ccc(C)c(S(=O)(=O)NCc2ccncc2)c1
Second: Cc1ccc2nc3c(cc(C(=O)NCCCn4ccnc4)n3C)c(=O)n2c1
The z-score of the first is higher: 0.836 for the first, -0.172 for the second.

First: CCC(CC)c1nnc(NC(=O)c2cccc(S(=O)(=O)N3CCc4ccccc43)c2)s1
Second: O=C(Nc1ccon1)c1cccc(S(=O)(=O)N2CCCC2)c1
The z-score of the first is higher: 0.234 for the first, 0.0728 for the second.

First: CC(C)COP(=O)(OCC(C)C)C(Nc1ccccc1)c1ccc(F)cc1 (configuration not stated)
Second: COc1ccccc1OCCC(=O)OCC(=O)NC(C)c1ccccc1 (configuration not stated)
The z-score of the first is lower: -0.0643 for the first, 0.983 for the second.

Going from `CCCNC(=O)c1cc(-c2ccc(Br)cc2)on1` to `O=C(NN1CCOCC1)c1cc(-c2ccc(Br)cc2)nc2ccccc12`, the z-score rises from -0.133 to 2.02.

Going from `CCOC(=O)n1c(SCC(N)=O)nc2ccccc21` to `CCOC(=O)CNC(=O)Nc1ccccc1C(=O)OC`, the z-score falls from -0.291 to -0.365.

First: COC(=O)c1sccc1NC(=O)c1c(C)cc(=O)oc1C
Second: CC(=O)COc1ccc2c(C)c(C)c(=O)oc2c1
The z-score of the first is higher: -0.28 for the first, -0.282 for the second.

Going from `Cc1cccc(NC(=S)Nc2cccc(C(F)(F)F)c2)n1` to `Cc1cccc(NC(=S)NC(NC(=O)OCc2ccccc2)C(Cl)(Cl)Cl)c1` (configuration not stated), the z-score rises from 0.00721 to 0.6.

First: Cc1ccccc1OCC(=O)N/N=C/c1ccco1
Second: COc1ccc(-c2nnc(SCC(=O)NCc3ccco3)n2C)cc1
The z-score of the first is lower: 0.0836 for the first, 0.202 for the second.

Going from `CC(C)(C)NC(=O)C(c1cccs1)N(CC1CCCO1)C(=O)c1ccc(-c2ccccc2)[nH]1` (configuration not stated) to `O=C(Nc1ccccc1-c1ccccc1)NC1CCN(CC(=O)N2CCOCC2)CC1`, the z-score rises from -1.41 to 0.57.

First: Cc1nnc(SCC(=O)Nc2cc(-c3cc(C)c(C)cc3C)nn2-c2ccccc2)s1
Second: Cc1ccc(OCc2nnc(SCC(=O)N3c4ccccc4Sc4ccc(Cl)cc43)o2)cc1
The z-score of the first is lower: -0.106 for the first, -0.0543 for the second.

First: COCCn1nnnc1CN1CCOCC1
Second: Brc1ccc(OCCCN2CCOCC2)cc1
The z-score of the first is higher: 0.018 for the first, -0.0547 for the second.

First: CCOc1ccccc1Nc1nc(N)nc(CSc2nccc(C)n2)n1
Second: Fc1cccc(Cl)c1Cn1nnc2c(NCc3ccccn3)ncnc21
The z-score of the first is higher: 0.0399 for the first, -1.36 for the second.

First: CCOC(=O)c1c(Nc2ccccc2)sc(/C=C2\C=Nc3ccccc32)c1O
Second: Cc1cccc(C)c1NC(=O)C(c1cccc([N+](=O)[O-])c1)N(C)C(=O)c1ccccn1 (configuration not stated)
The z-score of the first is higher: 0.0111 for the first, -0.125 for the second.

Compared with `O=C(CC1NCCNC1=O)OCCCc1ccccc1` (configuration not stated), `CCC(=O)NCCc1c[nH]c2ccccc12` is lower in z-score: 1.22 for the first, -0.65 for the second.

Going from `CC(=O)NS(=O)(=O)c1ccc(NC(=O)COc2ccc(C(=O)c3ccccc3)cc2)cc1` to `COc1ccc(N(CC(=O)Nc2cccc(C(=O)O)c2)S(=O)(=O)c2c(C)noc2C)cc1`, the z-score falls from 0.359 to -0.205.

Compared with `CCCC/S(CC1CC1(Cl)Cl)=N\S(=O)(=O)c1ccc(C)cc1` (configuration not stated), `CCCNS(=O)(=O)c1ccc(CCC(=O)N2CCN(CC)CC2)cc1` is higher in z-score: 0.0545 for the first, 0.133 for the second.

Compared with `c1cncc(-c2noc(CC3CCCCC3)n2)c1`, `CC1CCCCC1NC(=O)COC(=O)c1ccc(S(=O)(=O)NCc2ccco2)cc1` (configuration not stated) is higher in z-score: -0.621 for the first, -0.0725 for the second.

Going from `O=C1NC(=O)C2(CCc3ccccc32)N1` (configuration not stated) to `Cc1ccccc1NC(=S)NC1(C)CCS(=O)(=O)C1` (configuration not stated), the z-score falls from 0.222 to 0.0265.

First: COC(=O)c1ccccc1NC(=O)N1CSC[C@H]1C(=O)OC
Second: CCC1=NN(C(=O)C(=O)Nc2ccccc2OC)C(O)(C(F)(F)F)C1 (configuration not stated)
The z-score of the first is higher: -0.0884 for the first, -0.112 for the second.

First: CCOC(=O)N1CCN(C(=O)c2oc3ccc(S(=O)(=O)N4CCCCCC4)cc3c2C)CC1
Second: Cc1[nH]n(C(N)=S)c(=O)c1N=Nc1ccc(S(=O)(=O)N2CCCC2)cc1
The z-score of the first is lower: -0.281 for the first, 0.339 for the second.

Compared with `COc1ccc(CNC(=O)C(CCSC)NC(=O)c2ccco2)cc1` (configuration not stated), `CCCOc1cccc(-c2cc(C(=O)NNC(=S)NCC)c3ccccc3n2)c1` is higher in z-score: 0.0134 for the first, 0.0683 for the second.

First: CC(=O)NC(CCS(C)(=O)=O)C(=O)Nc1cccc(C)c1 (configuration not stated)
Second: CCOC(=O)CC(NC(=O)c1cc2cc(Br)ccc2oc1=O)c1cccc([N+](=O)[O-])c1 (configuration not stated)
The z-score of the first is lower: -0.274 for the first, -0.0679 for the second.

First: CSc1nnc(-c2sc3cc(C(F)(F)F)cnc3c2-c2ccccc2)n1C
Second: Cn1c(-c2ccc(F)cc2)cnc1NCc1cccc(F)c1
The z-score of the first is lower: -1.06 for the first, -0.013 for the second.

Compared with `NC1=NC(=O)/C(=C\c2cccs2)S1`, `CCC(C)NC(=O)C1CCN(S(=O)(=O)c2cccs2)CC1` (configuration not stated) is higher in z-score: -0.0766 for the first, 0.377 for the second.

Going from `CCC(=O)Nc1nc(-c2ccc3c(c2)OCCO3)cs1` to `CCc1ccc(-c2csc3ncn(CC(=O)N4CCOCC4)c(=O)c23)cc1`, the z-score falls from -0.0358 to -0.253.

Compared with `N#C/C(=C/c1ccc(N2CCOCC2)o1)c1ccc(Br)cc1`, `CC(NC(=O)CCCCCN1C(=O)c2ccccc2C1=O)c1ccc2c(c1)CCCC2` (configuration not stated) is lower in z-score: -0.0495 for the first, -0.602 for the second.

Compared with `Cc1ccc(Oc2ccc(Oc3ccc(C)cc3)nn2)cc1`, `CCCCC(=O)Nc1ccc(C(=O)NCCCn2ccnc2)cc1` is higher in z-score: -0.0077 for the first, 0.21 for the second.

Going from `CCCCC/C=N\NC(=O)Cc1ccc([N+](=O)[O-])cc1` to `COc1cc(C)nc(N2CCC(C(=O)NC3CCCCC3)CC2)n1`, the z-score rises from -0.066 to 0.34.

With `CCOC1CC(C)(C)NC(=S)N1` (configuration not stated) the z-score was -0.234.

For `COc1ccc(-c2cn(-c3ccccc3)c3[n+]2CCS3)cc1`, the z-score was 0.217 and -0.0432.
In the case of `Cc1ccc(-c2nnc(SCC(=O)Nc3ccc4c(c3)OCCO4)n2N)cc1`, the z-score is reported as active: 14.1.
With `Cn1c(SCC(=O)N2c3ccccc3CCc3ccccc32)nnc1-c1ccc(O)cc1` the z-score was active: 5.88.
With `CN1C(=O)NC(c2ccccc2)C2=C1CN(Cc1ccccc1)C2=O` (configuration not stated) the z-score was active: 7.33.
With `CCOC(=O)C1=C(O)C(=O)N(c2ccc(S(N)(=O)=O)cc2)C1c1ccccc1` (configuration not stated) the z-score was active: -4.02.
